# Test results: the BET-seq Pho4 binding data (Le et al. 2018)
# The list shows a part of the results. Values were computed here from the reads of four pooled replicates and scatter widely.
# Molecular target: T1, Pho4 (S. cerevisiae) (UniProt P07270)
# T1 sequence: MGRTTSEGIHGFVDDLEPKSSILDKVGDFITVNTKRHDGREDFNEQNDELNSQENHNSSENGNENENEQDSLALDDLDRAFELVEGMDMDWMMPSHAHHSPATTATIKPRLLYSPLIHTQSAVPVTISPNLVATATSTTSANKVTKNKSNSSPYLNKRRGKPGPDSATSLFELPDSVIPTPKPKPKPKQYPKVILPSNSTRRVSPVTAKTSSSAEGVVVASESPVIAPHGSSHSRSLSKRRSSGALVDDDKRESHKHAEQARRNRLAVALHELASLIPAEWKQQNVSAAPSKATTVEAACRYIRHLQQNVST
# Test: relative binding free energy (BET-seq); higher = weaker binding
# Details: reference: library average
row,Sequence,relative binding free energy
1,TTGTTCACGTGCGACT,1.21 kJ/mol
2,AAGTGCACGTGGCGGC,-0.335 kJ/mol
3,TAGGCCACGTGGAGTA,-0.46 kJ/mol
4,AGAACCACGTGGGGGT,-0.251 kJ/mol
5,TGGTGCACGTGTATGT,0.669 kJ/mol
6,AGAAGCACGTGTGAGG,-0.167 kJ/mol
7,TATTTCACGTGTTGGG,1.34 kJ/mol
8,CGTTACACGTGGGGAG,-0.502 kJ/mol
9,AGGGGCACGTGTATTA,-0.293 kJ/mol
10,AATGTCACGTGGTTTT,0.669 kJ/mol
11,GTTGACACGTGGAGTT,0.0418 kJ/mol
12,AGTTCCACGTGGGCGG,0.0418 kJ/mol
13,TAATGCACGTGTTACG,0.0418 kJ/mol
14,TTAGTCACGTGCTAGT,-0.586 kJ/mol
15,TGAAACACGTGGGGTC,-0.46 kJ/mol
16,CGGCGCACGTGTAGGG,-0.209 kJ/mol
17,GCGTCCACGTGGGAGG,-0.251 kJ/mol
18,CGTGGCACGTGAGGGG,0.586 kJ/mol
19,TTGGTCACGTGAGTCC,1.76 kJ/mol
20,GTAGTCACGTGTTCTG,0.711 kJ/mol
21,GATGGCACGTGATTAG,0.502 kJ/mol
22,TAAAGCACGTGTGGCG,-0.251 kJ/mol
23,GGCTTCACGTGGAGGA,0.753 kJ/mol

row,Sequence,relative binding free energy
1,AGTTGCACGTGAATTG,0.92 kJ/mol
2,TCTGGCACGTGAGAGT,-0.0837 kJ/mol
3,TTTCACACGTGATGGG,1.55 kJ/mol
4,GCTGACACGTGAGGTA,1.05 kJ/mol
5,ATAGTCACGTGGGAAT,0.377 kJ/mol
6,GGTAACACGTGGGCTT,-0.251 kJ/mol
7,CCGTGCACGTGATGGT,0.167 kJ/mol
8,TTTCTCACGTGTACTG,1.13 kJ/mol
9,AGATACACGTGATGGG,0.837 kJ/mol
10,ATGATCACGTGAGGTG,1.51 kJ/mol
11,ATGAGCACGTGGTAGA,-0.753 kJ/mol
12,TATATCACGTGTCTTT,0.377 kJ/mol
13,CTATTCACGTGTTGGG,1 kJ/mol
14,AATGGCACGTGTAGGA,0.335 kJ/mol
15,GTTTGCACGTGTTGCT,0.251 kJ/mol
16,TATTGCACGTGAGACT,0.544 kJ/mol
17,ATGCGCACGTGGGGGT,-1.26 kJ/mol
18,TGGGACACGTGGGTGG,-0.0837 kJ/mol
19,TTTGACACGTGTCATA,-0.126 kJ/mol
20,AATATCACGTGTGAAG,1 kJ/mol
21,GCGGGCACGTGCAGTG,-0.335 kJ/mol
22,TTGATCACGTGGGTGA,0.377 kJ/mol
23,ATGGGCACGTGGTGAA,-0.126 kJ/mol

row,Sequence,relative binding free energy
1,TCCGGCACGTGGGATT,-0.377 kJ/mol
2,GCGAGCACGTGTTGGG,-0.167 kJ/mol
3,AAATTCACGTGAAATT,1.97 kJ/mol
4,TTATGCACGTGGTTCG,-0.167 kJ/mol
5,TTATACACGTGCGTTG,0.167 kJ/mol
6,GAGGGCACGTGGCGGG,-0.418 kJ/mol
7,AGTGGCACGTGCTGGT,-0.795 kJ/mol
8,ATAGGCACGTGGGATT,-0.753 kJ/mol
9,TGTGGCACGTGAAGAG,0.753 kJ/mol
10,TCGGGCACGTGCAGGT,-0.544 kJ/mol
11,GGGTACACGTGGATAG,-0.251 kJ/mol
12,GTATTCACGTGGTGGC,1.26 kJ/mol
13,CCTTTCACGTGTGGGT,1.76 kJ/mol
14,AAGTGCACGTGTGTAG,-0.0837 kJ/mol
15,GTATTCACGTGACGTG,2.01 kJ/mol
16,AGGGGCACGTGTCGTG,-0.209 kJ/mol
17,AGCGGCACGTGATGTT,-0.0418 kJ/mol
18,CTAGGCACGTGGGGCG,-1.13 kJ/mol
19,GTTAACACGTGGGGAT,-0.544 kJ/mol
20,CGTGACACGTGTTCGT,0.251 kJ/mol
21,ATTGGCACGTGTGCTA,-0.251 kJ/mol
22,TTGATCACGTGGGACA,-0.0418 kJ/mol
23,GTGGTCACGTGTTGCC,0.628 kJ/mol

row,Sequence,relative binding free energy
1,GGAGCCACGTGAAGGG,0.962 kJ/mol
2,TGAATCACGTGAGTTA,1.17 kJ/mol
3,GAAGTCACGTGGTACT,0.795 kJ/mol
4,CAGGGCACGTGTGAAG,-0.0837 kJ/mol
5,TGTGTCACGTGTGAAC,0.335 kJ/mol
6,ATGAGCACGTGAAGTA,1.13 kJ/mol
7,TAAAGCACGTGATAGG,0.0837 kJ/mol
8,CATGTCACGTGGCGTT,0.251 kJ/mol
9,TCGTTCACGTGAGGCG,1.76 kJ/mol
10,TTGGCCACGTGGCGAG,-0.544 kJ/mol
11,TTAGTCACGTGCTATT,-0.418 kJ/mol
12,ATTTGCACGTGTACGT,0.837 kJ/mol
13,TAGCTCACGTGTTGCG,1 kJ/mol
14,TATTCCACGTGGCTGT,0.502 kJ/mol
15,TGCTTCACGTGGGTCT,0 kJ/mol
16,GCGGCCACGTGGGAGG,-0.795 kJ/mol
17,TGGTTCACGTGAGGGA,1.63 kJ/mol
18,TTTGACACGTGGATTG,0.0837 kJ/mol
19,TGTGACACGTGCAGCG,-0.0837 kJ/mol
20,AGCCTCACGTGTGGGT,0.753 kJ/mol
21,TGGCACACGTGTCGGT,-0.0837 kJ/mol
22,AGTTACACGTGTTGAT,0.377 kJ/mol
23,CATATCACGTGAGGTG,1.21 kJ/mol

row,Sequence,relative binding free energy
1,GTTGGCACGTGAGCCG,1.51 kJ/mol
2,TACAACACGTGTGTTT,0.209 kJ/mol
3,GTAGGCACGTGGGGAG,-1.26 kJ/mol
4,GTCTTCACGTGCTTTT,1.46 kJ/mol
5,TTTTTCACGTGCAAGG,1.17 kJ/mol
6,GGATACACGTGGGGCA,0.377 kJ/mol
7,GCTGACACGTGGGAGT,-0.251 kJ/mol
8,GGGGACACGTGATTAT,0.502 kJ/mol
9,TTTGACACGTGTGCCT,-0.126 kJ/mol
10,ATCGTCACGTGTGTGC,0.251 kJ/mol
11,GGAGGCACGTGGCTAT,-0.795 kJ/mol
12,ATATTCACGTGAGGAA,0.669 kJ/mol
13,CGAGGCACGTGGTTGA,-1.26 kJ/mol
14,TTTGGCACGTGATGGT,0.167 kJ/mol
15,GGAATCACGTGGTCTT,0.879 kJ/mol
16,TTTATCACGTGTATAC,-0.0418 kJ/mol
17,TACTTCACGTGGGTCT,1.34 kJ/mol
18,CTTTGCACGTGAGAGT,1.09 kJ/mol
19,TATTCCACGTGGAGGT,-0.586 kJ/mol
20,GCGGACACGTGTGGTT,0.418 kJ/mol
21,GTGTTCACGTGAAGCT,1.17 kJ/mol
22,TGCGGCACGTGTGCGG,-0.167 kJ/mol
23,TGGGGCACGTGAGAGG,0.586 kJ/mol
